Experiment [1] deals with ChsH2^N (ChsH2 amino acid […], C-terminal DUF35 domain absent) (Mycobacterium tuberculosis H37Rv). The experiment can be described thus: SAXS.
The target of experiment [2] is ChsH2, full length (from the ChsH1-ChsH2 complex made in E. coli) (Mycobacterium tuberculosis H37Rv). The experiment can be described thus: SAXS.

B1: ChsH1 (from the ChsH1-ChsH2 and ChsH1-ChsH2^N complexes made in E. coli) (enzyme)
chain: not shown
For the molecule B1, the binding result in experiment [1] and in experiment [2] was “binds” in each case.

(Values after publication PMC6946549 (Biochemistry, 2019).)
